# Test results from article PMC7284315.
# Amino acid sequences for entries named in this document (tags omitted).
# UniProt P49674: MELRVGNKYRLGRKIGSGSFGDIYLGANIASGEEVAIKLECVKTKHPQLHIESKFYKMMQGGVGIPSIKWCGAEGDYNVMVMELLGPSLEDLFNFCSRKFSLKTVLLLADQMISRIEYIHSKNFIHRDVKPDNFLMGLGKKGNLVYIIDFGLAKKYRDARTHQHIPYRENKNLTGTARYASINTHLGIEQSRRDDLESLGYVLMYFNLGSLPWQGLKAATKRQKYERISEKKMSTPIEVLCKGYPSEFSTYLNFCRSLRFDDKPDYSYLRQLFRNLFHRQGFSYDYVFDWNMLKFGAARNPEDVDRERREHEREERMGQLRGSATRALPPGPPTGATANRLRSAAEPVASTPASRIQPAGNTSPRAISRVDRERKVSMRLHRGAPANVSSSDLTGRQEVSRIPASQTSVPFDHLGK
# Numbering of substitutions follows the chain as printed. No constants are given. Whether binding was seen depends on the method and setting. In cells and extracts the contact can be indirect. Some binding calls cover weakened binding; strength is not graded here. Sequences can lack the tags named with a protein.
# Experiments:
# [1] = target: T1, FAM83H with endogenous C-terminal GFP tag (A549 FAM83H^GFP/GFP) (human (endogenous in A549)) (UniProt Q6ZRV2); assay: co-IP; GFP IP from lysates of A549 FAM83H^GFP/GFP (knock-in) cells or of A549 wild type cells transiently expressing GFP; immunoblot of endogenous preys
# T1 sequence: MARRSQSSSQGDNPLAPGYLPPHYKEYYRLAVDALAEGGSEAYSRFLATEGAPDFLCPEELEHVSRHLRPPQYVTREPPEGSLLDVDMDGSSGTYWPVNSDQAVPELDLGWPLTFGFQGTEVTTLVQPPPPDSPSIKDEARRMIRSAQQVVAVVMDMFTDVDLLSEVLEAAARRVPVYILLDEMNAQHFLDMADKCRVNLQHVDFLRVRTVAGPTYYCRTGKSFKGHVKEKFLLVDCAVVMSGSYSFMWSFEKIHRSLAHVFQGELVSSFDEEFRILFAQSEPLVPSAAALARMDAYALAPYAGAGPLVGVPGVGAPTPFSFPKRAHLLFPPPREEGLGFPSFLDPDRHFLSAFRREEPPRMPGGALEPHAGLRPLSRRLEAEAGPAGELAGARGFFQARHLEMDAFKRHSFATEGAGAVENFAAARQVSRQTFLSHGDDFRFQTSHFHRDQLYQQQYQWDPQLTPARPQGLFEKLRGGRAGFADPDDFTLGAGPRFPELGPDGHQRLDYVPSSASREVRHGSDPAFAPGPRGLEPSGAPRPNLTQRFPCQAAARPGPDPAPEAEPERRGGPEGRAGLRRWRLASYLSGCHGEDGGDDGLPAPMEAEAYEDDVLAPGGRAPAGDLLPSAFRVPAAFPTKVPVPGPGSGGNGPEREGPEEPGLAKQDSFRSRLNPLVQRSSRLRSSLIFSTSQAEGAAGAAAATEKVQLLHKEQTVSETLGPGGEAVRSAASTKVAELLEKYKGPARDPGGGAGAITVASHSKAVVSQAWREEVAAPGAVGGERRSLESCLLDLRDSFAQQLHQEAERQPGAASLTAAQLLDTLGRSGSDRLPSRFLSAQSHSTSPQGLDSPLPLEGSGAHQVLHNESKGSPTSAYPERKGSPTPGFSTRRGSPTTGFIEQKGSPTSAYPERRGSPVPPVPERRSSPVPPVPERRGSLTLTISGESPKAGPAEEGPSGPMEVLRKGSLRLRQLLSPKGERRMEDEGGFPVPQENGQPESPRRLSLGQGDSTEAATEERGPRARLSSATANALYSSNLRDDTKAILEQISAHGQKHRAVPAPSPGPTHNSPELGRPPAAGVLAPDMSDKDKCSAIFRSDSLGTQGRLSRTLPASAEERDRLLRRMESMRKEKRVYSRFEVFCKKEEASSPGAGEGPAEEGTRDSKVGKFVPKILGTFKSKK
# [2] = target: T2, FLAG-FAM83H^S287X (human) (UniProt Q6ZRV2); assay: co-IP; anti-FLAG agarose IP from lysates of U2OS FAM83H-/- cells transiently transfected with FLAG-FAM83H constructs, 1 h at 4 °C (16 h in Fig. 6C); immunoblot of endogenous preys
# T2 sequence: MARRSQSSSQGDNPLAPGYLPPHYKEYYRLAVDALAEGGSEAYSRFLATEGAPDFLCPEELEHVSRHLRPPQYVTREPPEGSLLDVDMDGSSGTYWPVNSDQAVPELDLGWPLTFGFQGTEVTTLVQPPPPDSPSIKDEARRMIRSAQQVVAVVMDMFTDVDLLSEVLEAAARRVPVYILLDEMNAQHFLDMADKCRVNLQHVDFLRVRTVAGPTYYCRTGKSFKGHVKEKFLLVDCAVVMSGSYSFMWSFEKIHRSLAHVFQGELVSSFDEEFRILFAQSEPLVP
# [3] = target: T3, FLAG-FAM83H^(S287X, D236A) (human) (UniProt Q6ZRV2); assay: as above
# T3 sequence: T2 sequence with D236A
substance,measurement,setting,value
"protein kinase CK1 isoform ε (CK1ε), endogenous (from UniProt P49674 1-416) (enzyme)",binding,[1],binds
same,binding,[2],binds
same,binding,[3],no binding
